Reference: publication PMC4336329 (PLoS ONE, 2015)
Screen size: about 310,000 compounds; about 14,000 (4.5%) showed an effect of 50% or more. Effects have a minus sign here. Some of the results follow.

What follows are compounds tested against human ether-à-go-go-related gene (hERG) potassium channel (human, UniProt Q12809) (assay: primary screen, population patch clamp on CHO cells stably expressing hERG).
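Note: peak tail current of the secondary pulse compared with the same well before compound.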

Chain of human ether-à-go-go-related gene (hERG) potassium channel (Q12809 whole entry, looked up): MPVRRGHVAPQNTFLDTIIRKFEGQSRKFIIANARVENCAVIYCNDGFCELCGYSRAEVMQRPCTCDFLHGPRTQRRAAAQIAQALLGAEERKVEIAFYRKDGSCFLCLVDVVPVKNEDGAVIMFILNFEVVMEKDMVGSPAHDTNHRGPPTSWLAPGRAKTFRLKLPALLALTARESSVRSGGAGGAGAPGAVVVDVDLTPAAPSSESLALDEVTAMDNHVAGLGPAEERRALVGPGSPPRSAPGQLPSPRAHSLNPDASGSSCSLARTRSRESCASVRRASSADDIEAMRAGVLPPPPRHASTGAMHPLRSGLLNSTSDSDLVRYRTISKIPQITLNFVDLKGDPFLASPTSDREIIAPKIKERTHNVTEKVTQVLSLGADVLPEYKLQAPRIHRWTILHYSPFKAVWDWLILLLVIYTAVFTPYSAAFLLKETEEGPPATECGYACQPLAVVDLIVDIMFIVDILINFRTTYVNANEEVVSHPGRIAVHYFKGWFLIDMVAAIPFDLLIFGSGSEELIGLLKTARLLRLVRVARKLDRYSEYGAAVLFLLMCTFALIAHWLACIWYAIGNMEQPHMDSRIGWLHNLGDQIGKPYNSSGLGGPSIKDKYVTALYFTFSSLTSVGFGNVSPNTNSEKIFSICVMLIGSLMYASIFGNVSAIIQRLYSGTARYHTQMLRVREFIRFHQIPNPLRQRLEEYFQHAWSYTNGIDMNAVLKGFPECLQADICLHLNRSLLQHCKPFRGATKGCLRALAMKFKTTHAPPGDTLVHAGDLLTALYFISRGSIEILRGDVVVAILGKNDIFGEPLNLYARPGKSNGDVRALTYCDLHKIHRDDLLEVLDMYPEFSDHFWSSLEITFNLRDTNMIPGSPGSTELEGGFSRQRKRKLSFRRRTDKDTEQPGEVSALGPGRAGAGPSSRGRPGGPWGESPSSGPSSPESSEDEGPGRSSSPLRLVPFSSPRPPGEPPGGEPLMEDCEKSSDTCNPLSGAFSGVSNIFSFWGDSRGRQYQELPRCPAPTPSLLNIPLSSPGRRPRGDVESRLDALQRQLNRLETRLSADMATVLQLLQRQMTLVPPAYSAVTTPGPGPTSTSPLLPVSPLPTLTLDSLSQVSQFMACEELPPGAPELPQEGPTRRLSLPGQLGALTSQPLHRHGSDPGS

| SMILES | hERG current change (%, negative = inhibition) at 10uM |
| --- | --- |
| Cc1nnc(N(CCC#N)CCC#N)s1 | 12.3% |
| Nc1nc(Cl)nc2ccc(Br)cc12 | 7.87% |
| Cc1nc2oc3c(=O)[nH]cnc3c2c2c1COC(C)(C)C2 | 3.19% |
| Cc1cc(NC(=O)CCC(=O)N(Cc2cccs2)C(C)(C)C(=O)NC2CCCCC2)no1 | 6.9% |
| O=C(NNC1=NCCN1Cc1ccccc1)c1cccc(C(F)(F)F)c1 | -11.9% |
| FC(F)(F)c1cccc(-c2nnc(-c3ccccc3)c(N3CCOCC3)n2)c1 | -19.7% |
| Cc1ccc(S(=O)(=O)n2nc(C)c(Br)c2C)c(C)c1C | 20.8% |
| CCc1ccc(-c2csc3[n+]2CCN3C(C)=O)cc1.[Br-] | -29.1% |
| CC1CCC(NC(=O)COc2ccccc2C(N)=O)CC1 (centres unmarked) | 6.59% |
| CCOC(=O)Cn1cnc2c(cnn2-c2ccc(OC)cc2)c1=O | 17.1% |
| O=C(NC1CCCC1)C(c1ccncc1)N(C(=O)c1ccco1)c1ccccc1 (centres unmarked) | -5.61% |
| CCOc1ccc(C2N(c3cc(Cl)ccc3OC)C(=O)C3CCCN32)cc1OC (centres unmarked) | -0.709% |
| C=CCn1c(CNC(=O)c2ccccc2F)nnc1SCC(=O)N1CCOCC1 | -2.18% |
| CCN(CC)S(=O)(=O)c1cc(OCC(N)=O)c(C)cc1Cl | -12.4% |
| O=S(=O)(NC1CCCCCCC1)c1ccccc1 | 2.12% |
| COc1ccc(-c2nc3c([nH]2)c(=O)n(C)c(=O)n3C)c(OC)c1 | 10.1% |
| CC(NC(=O)Nc1ccc([N+](=O)[O-])cc1)C(c1cccs1)N1CCCC1 (centres unmarked) | -60.1% |
| Cc1cccc(NC(=O)CSc2nccn2C)c1 | 7.61% |
| Cc1onc(-c2ccccc2)c1C(=O)Nc1cccc(S(=O)(=O)NC2=NCCC2)c1 | 16.6% |
| CCN(CC)c1ccc(/C=N/NC(=O)c2ccc([N+](=O)[O-])cc2)cc1 | 20.2% |
| CCOc1cccc(CN2CCN(CCc3ccccc3)C(CCO)C2)c1O (centres unmarked) | -69.7% |
| Cc1csc(NC(=O)c2cncc(Br)c2)n1 | 6.64% |
| CC(C)[C@H](NC(=O)c1ccco1)C(=O)Nc1ccc(OC(F)F)cc1 | -18.3% |

| SMILES | hERG current change (%, negative = inhibition) at 10uM |
| --- | --- |
| CC12CCC(=O)N1C(C(=O)Nc1nnc(SCc3ccc(F)cc3)s1)CS2 (centres unmarked) | -15.2% |
| CN1CCN(C(=O)CN(c2cccc(Br)c2)S(=O)(=O)c2ccccc2)CC1 | -35.1% |
| O=C(Nc1ccc(Cl)cc1)NC1CCCc2ccccc21 (centres unmarked) | -11.4% |
| O=C(NCCc1c[nH]c2ccccc12)c1c(Cl)nc2sccn12 | 15.4% |
| Cc1noc(NS(=O)(=O)c2ccc(NC(=O)CCn3c(=O)oc4ccccc43)cc2)c1C | -0.24% |
| CC(C)(C)C(=O)C1=C(O)C(=O)N(c2ccccc2)C1c1ccccc1 (centres unmarked) | 16.2% |
| CCOc1ccc(NS(=O)(=O)c2ccc3[nH]cc(C(=O)NCC4CCCO4)c(=O)c3c2)cc1 (centres unmarked) | 12.8% |
| Cc1cc(-c2csc(NC(=O)c3ccc(=O)n(C)n3)n2)c(C)n1CC1CCCO1 (centres unmarked) | 17.2% |
| CC(=O)N1C(C)(C)CC(=NOC(=O)c2ccc(C)cc2)CC1(C)C | 13.6% |
| Cc1ccc(CN2CCN(c3ccccn3)CC2)s1.O=C(O)C(=O)O | -39.8% |
| CCN(CC)CCn1c(/N=C/c2cc(Br)ccc2O)nc2ccccc21 | -26.9% |
| COc1ccc(C2(C(=O)c3ccccc3)C(=O)c3ccccc3C2=O)cc1 | 16.4% |
| COCCCNCCCCSc1ccc(Cl)cc1 | -37.9% |
| Cc1nnc(SCC(=O)Nc2ccc(N3CCOCC3)cc2)o1 | 10.3% |
| CCC(C)(C)n1nnnc1C(c1ccc(C)cc1)N1CCN(C(=O)c2ccco2)CC1 (centres unmarked) | -45.8% |
| CC(=O)c1ccc(Nc2nc(N3CCOCC3)nc(N3CCOCC3)n2)cc1 | -6.33% |
| O=C(COC(=O)/C=C/c1cccc(Cl)c1Cl)Nc1ccc2[nH]c(=O)[nH]c2c1 | 11.3% |
| C=CCn1c(C)cc(C(=O)CSc2nc3ccccc3c(=O)[nH]2)c1C | 9.49% |
| CCCCn1c(SCC(=O)OCC)nc2c1c(=O)[nH]c(=O)n2C | -41.9% |
| CC1CCN(c2ccc(NC(=O)Cc3ccccc3)cc2)CC1 | 17.8% |
| COc1cc(C2NC(=O)NC(O)(C(F)(F)F)C2C(C)=O)cc(OC)c1OC (centres unmarked) | 4.75% |
| O=C(CC1C(=O)NCCN1Cc1c(F)cccc1Cl)NCCCn1ccnc1 (centres unmarked) | 4.6% |
| COCCNS(=O)(=O)c1cc(F)ccc1OC | 14.2% |

| SMILES | hERG current change (%, negative = inhibition) at 10uM |
| --- | --- |
| CCOP(=O)(OCC)C(NC(=O)Nc1ccc(Cl)cc1)C(N)=O (centres unmarked) | 3.65% |
| COC(=O)c1ccccc1NC(=O)CN1CCN(Cc2ccccc2)CC1 | -74.5% |
| Cc1csc(NC(=O)CSc2nnc(-c3ccco3)n2C)n1 | -31.6% |
| Cn1cc(CN2CCC(n3nccc3NC(=O)Cc3ccccc3)CC2)cn1 | -41.8% |
| CCOC(=O)N=S(N)(=O)c1ccccc1 (centres unmarked) | -8.48% |
| C=C(C)CNC(=S)N/N=C/c1ccc(N2CCOCC2)cc1 | 20.3% |
| CC1CCN(C(=O)COC(=O)c2cc(S(=O)(=O)N3CCOCC3)ccc2Cl)CC1 | -2.23% |
| Cc1cc(NC(=O)COc2ccc(C)c(C)c2)no1 | 18.2% |
| COc1ccc(NC(=O)c2sc3nc(C)nc(N4CCOCC4)c3c2C)c(OC)c1 | 9.38% |
| CCCCN(CCCC)CCNC(=O)CN1C(=O)COc2ccc(S(=O)(=O)N3CCOCC3)cc21 | -42.3% |
| COc1ccc2c(c1)oc(=O)c1ccccc12 | -8.58% |
| O=C(c1cccnc1)N1C2C=CC(C2)C1(C(F)(F)F)C(F)(F)F (centres unmarked) | 14.6% |
| CCCn1c(=O)c2ccccc2n2c(SCCOc3ccc(C)cc3)nnc12 | -9.07% |
| CC1(C)C(=O)Nc2ccccc2N1C(=O)COC(=O)Cn1cnc2ccccc2c1=O | -5.08% |
| O=C(NC1(O)C(=O)c2ccccc2C1=O)c1ccccc1 | 3% |
| O=C(NC1CCCCC1)C(c1cccnc1)N(C(=O)c1csnn1)c1ccc(F)cc1 (centres unmarked) | -3.2% |
| Cl.Nc1ccc(C(=O)N/N=C2/CN3CCC2CC3)cc1 | 12.7% |
| CSc1ccccc1NC(=O)c1ccc2c(c1)CCN2S(C)(=O)=O | -5.43% |
| CCN(CC)C(=O)c1ccc(NC(=O)c2sccc2-c2ccccc2)cc1 | 8.25% |
| COc1ccccc1N1CCN(C(=O)c2cc(=O)c3cc(C)cc(C)c3o2)CC1 | -27.3% |
| Cc1ccc2c(c1)NC(=O)c1cccnc1N2 | -1.31% |
| Cc1cc(Nc2ccccc2)n(CCOC(=O)COc2ccccc2)n1 | 7.87% |
| CC(C)(CNC(=O)CC1C(=O)NCCN1Cc1cccc(F)c1)N1CCOCC1 (centres unmarked) | 11% |

| SMILES | hERG current change (%, negative = inhibition) at 10uM |
| --- | --- |
| CSCC[C@H](NC(=O)[C@@H]1Cc2ccccc2CN1)C(=O)NCC1CCC(C(=O)O)CC1.Cl (some centres unmarked) | -14.1% |
| Cc1nn(C)c(Oc2cccc(Cl)c2)c1C(=O)O | -6.18% |
| Cc1cc(C(=O)NC2=NCCS2)cs1 | -18% |
| O=C1CCC[C@@H]2Cc3[nH]c4c(Cl)ccc(Cl)c4c3[C@@H]3CCN1[C@H]23 | -3.18% |
| O=C(Nc1nc(-c2ccc3ccccc3c2)cs1)c1ccc(N2C(=O)CCC2=O)cc1 | 15.2% |
| CCC(=O)Nc1cccc(NC(=S)NC(=O)c2ccc(Cl)cc2)c1 | 16.3% |
| Cc1c(C(=O)N2CCCC2)sc(NC(=O)c2cccs2)c1C#N | -0.408% |
| CC[N+](CC)(CC)CCOc1cccc(OCC[N+](CC)(CC)CC)c1OCC[N+](CC)(CC)CC.[I-] | 25.2% |
| Cc1ccccc1C(=O)N1CCN(c2ccccn2)CC1 | 3.59% |
| O=C(NCC(=O)N1CCC2(CC1)NCCc1[nH]cnc12)c1cccc(Cl)c1 | 12.5% |
| Cc1ccc(Nc2nc(NCC3CCCO3)nc(N)c2[N+](=O)[O-])cc1C (centres unmarked) | 14.4% |
| Cc1ccc(C2C3C(=O)N(c4ccc(C)cc4)C(=O)C3N3CCCN23)cc1 (centres unmarked) | 8.13% |
| CC(=O)NC1C(=O)N=C(SCC(=O)Nc2ccc(C(F)(F)F)cc2Cl)NC1=O (centres unmarked) | 27.8% |
| COCCNS(=O)(=O)c1ccccc1 | 9.4% |
| COc1ccccc1OCCSc1ncnc2nc[nH]c12 | 4.63% |
| COC(=O)C1=C(c2ccccc2OCc2ccccc2)C[C@@H]2CC[C@H]1N2C(=O)NCc1ccc([N+](=O)[O-])cc1 | -48.9% |
| Cc1cccc(C(=O)Nc2ccc3c(c2)nc(C)n3C)c1 | -1.73% |
| CCOc1cc(C(=O)Nc2ccc(N3CCOCC3)cc2)cc(Br)c1OC | 15.3% |
| CC(C)(C)NC(=O)CN(C(=O)CNC(=O)c1cccs1)c1ccc2c(c1)OCCO2 | 9.71% |
| C/C(N)=C(/C#N)C(=O)CSc1nnc(NC(C)C)s1 | 15.7% |
